Over roughly 110,000 compounds, “z-score” has its median near -0.1; the highest 2% begin near 2. The list shows a part of the results. Active and inactive are the calls of the source.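 The calls were made as follows: active = z-score in the third read window above 3 or below -3; inactive = the rest.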
target: Metabotropic glutamate receptor 8 (Rattus norvegicus) (UniProt P70579); experiment: rat mGluR8 modulators via GIRK flux, primary screen, cell-based, thallium flux, HTS (AID 488969); details: HEK293 rat mGluR8, GIRK (G protein-gated inwardly rectifying potassium channel) thallium flux, FluoZin2; at 10 µM; stronger effect = higher value; submaximal glutamate (EC20) added with thallium
Sequence of UniProt P70579 (P70579 whole entry, looked up): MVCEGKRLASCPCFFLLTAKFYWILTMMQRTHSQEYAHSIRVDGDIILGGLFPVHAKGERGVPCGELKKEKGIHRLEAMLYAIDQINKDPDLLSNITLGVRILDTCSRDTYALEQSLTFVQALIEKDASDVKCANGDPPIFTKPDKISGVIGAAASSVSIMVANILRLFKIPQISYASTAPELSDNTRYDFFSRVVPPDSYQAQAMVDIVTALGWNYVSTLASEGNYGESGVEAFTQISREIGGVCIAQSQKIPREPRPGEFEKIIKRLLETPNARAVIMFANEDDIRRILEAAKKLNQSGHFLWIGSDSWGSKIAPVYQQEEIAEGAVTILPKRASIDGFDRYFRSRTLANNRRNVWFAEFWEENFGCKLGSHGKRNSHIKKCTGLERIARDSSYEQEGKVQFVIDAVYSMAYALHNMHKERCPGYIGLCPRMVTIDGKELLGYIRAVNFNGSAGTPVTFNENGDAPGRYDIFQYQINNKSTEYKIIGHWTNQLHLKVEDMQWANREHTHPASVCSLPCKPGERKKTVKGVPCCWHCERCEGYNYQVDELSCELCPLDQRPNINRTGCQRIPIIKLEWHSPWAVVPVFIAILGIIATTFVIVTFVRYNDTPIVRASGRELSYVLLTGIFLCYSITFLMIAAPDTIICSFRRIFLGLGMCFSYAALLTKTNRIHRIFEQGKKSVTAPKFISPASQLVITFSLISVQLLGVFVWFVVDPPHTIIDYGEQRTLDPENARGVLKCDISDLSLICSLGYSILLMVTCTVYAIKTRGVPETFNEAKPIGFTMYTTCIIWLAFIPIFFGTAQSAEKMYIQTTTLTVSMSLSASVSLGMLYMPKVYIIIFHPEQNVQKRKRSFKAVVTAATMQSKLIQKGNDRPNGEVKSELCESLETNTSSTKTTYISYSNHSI

Compared with CCOC(=O)C1CCN(C(=O)c2ccc(Cl)c(Cl)c2)CC1, O=C(C1CC1)N1CCN=C1SCc1ccccc1Cl is lower in z-score: 0.0007 for the first, -0.159 for the second.

Going from COCCn1c(=O)c2cc3c(=O)n(CCOC)c(=O)c3cc2c1=O to COCCn1c(SCC#N)nnc1-c1ccc(OC)cc1, the z-score falls from 0.119 to -0.0813.

First: Cc1ccc(-n2c(SCC(=O)Nc3ccc4c5c(cccc35)CC4)nc(O)cc2=O)cc1
Second: Cc1cccc(-c2nc3ccccc3c(=O)n2NC(=O)Cc2ccc(Cl)cc2)c1
The z-score of the first is lower: -0.675 for the first, -0.0794 for the second.

Going from COC(=O)c1ccc(Cn2c(C)cc(C)[n+]2C)o1 to COC(=O)c1cc2n(n1)CCN(Cc1ccc(C)cc1)C2=O, the z-score rises from -0.26 to -0.151.

Going from CC(=O)NC(CCS(C)(=O)=O)C(=O)Nc1nccs1 (centres undefined) to COc1ccccc1CNC(=O)CCC(=O)Nc1nnc(C(C)C)s1, the z-score rises from 0.088 to 0.215.

Compared with CCOC(=O)C1=NN(C(=O)Nc2cccc(C(F)(F)F)c2)C2C(=O)N(c3cccc(C(F)(F)F)c3)C(=O)C12 (centres undefined), CCCC(=O)OC(C(=O)Nc1cc(C(F)(F)F)ccc1Cl)c1ccccc1 (centres undefined) is higher in z-score: -0.168 for the first, -0.094 for the second.

Compared with Cc1ccc2nc(NC(=O)C(NS(=O)(=O)c3cccc4nsnc34)C(C)C)sc2c1 (centres undefined), COc1ccc(C)cc1NC(=O)C(=O)N/N=C(\C)CC(=O)Nc1cccnc1 is higher in z-score: -0.223 for the first, -0.053 for the second.

Compared with CCCN(CCC(=O)Nc1ccccc1F)CC1CC1, COc1ccccc1NC(=O)Cc1nc(CCl)cs1 is higher in z-score: -0.182 for the first, -0.0598 for the second.

Going from Cc1oc(C(=O)O)cc1COc1ccc2c3c(c(=O)oc2c1C)CCC3 to COc1ccccc1-c1c(C)oc2c(CN3CCN(CCO)CC3)c(O)ccc2c1=O, the z-score rises from -0.462 to -0.126.

Compared with COc1ccc(CNC(=O)c2ccccc2SC)cc1, COc1ccc(Cn2nnc(C(=O)Nc3ccc(F)cc3)c2N)cc1 is lower in z-score: -0.0757 for the first, -0.321 for the second.

Compared with O=C(CCCSc1nc2sc3c(c2c(=O)[nH]1)CCC3)NCCCO, COC(=O)CSc1nc2sc3c(c2c(=O)n1C1CCCCC1)CCN(C)C3 is higher in z-score: -2.63 for the first, -0.562 for the second.

Going from Cc1cc(C(=O)OCC(=O)Nc2ccc(F)c(F)c2)c(C)o1 to CCOC(=O)c1sc(=S)n(C)c1NC(=O)c1ccccc1, the z-score falls from 0.0113 to -0.0971.

Going from CC1CN(C(=S)NC(=O)c2ccc([N+](=O)[O-])cc2)CC(C)O1 (centres undefined) to C=CCc1ccc(OCCCCN2CC(C)OC(C)C2)c(OC)c1 (centres undefined), the z-score falls from 0.605 to 0.314.

First: O=C(CSc1nc2ccccc2n1CC(=O)N1CCCC1)N1CCN(C(=O)c2ccco2)CC1
Second: CC1CCCN(C(=O)CNC(=O)Cn2ccc3ccccc3c2=O)C1 (centres undefined)
The z-score of the first is lower: -0.613 for the first, 0.466 for the second.

First: O=C(Cn1cc(-c2nnnn2-c2ccc(Cl)cc2)c(=O)c2ccccc21)c1ccccc1
Second: O=C(CSc1ccc(Cl)cc1)Nc1ccc(N2CCN(c3ccccc3)CC2)c(F)c1
The z-score of the first is higher: 0.138 for the first, -0.0573 for the second.

Compared with C/C(=N\NC(=O)c1ccccc1F)c1ccc2c(c1)Nc1ccccc1S2, Cc1ccc(C(=O)N/C(=C\c2ccco2)C(=O)NCCc2c[nH]c3ccccc23)cc1 is higher in z-score: -0.108 for the first, -0.0416 for the second.

Going from CCNC(=S)N1CCN(C(c2ccccc2)c2ccccc2)CC1 to CCCN1CCN(C(=S)Nc2ccccc2C(F)(F)F)CC1, the z-score rises from -0.321 to 2.17.

First: CCOc1ccccc1NC(=O)c1cnc2n(c1=O)CCS2
Second: CCOc1cc(C)c(Cl)cc1S(=O)(=O)n1nnc2ccccc21
The z-score of the first is higher: 0.405 for the first, -1.3 for the second.

First: O=S(=O)(NC1CC1)c1cccc(S(=O)(=O)N2CCCC2)c1
Second: O=S(=O)(NCc1ccccc1)c1cccc(S(=O)(=O)N2CCOCC2)c1
The z-score of the first is lower: -0.508 for the first, -0.0157 for the second.

Compared with COc1ccc(OCc2nc(N)nc(Nc3cccc(C)c3C)n2)cc1, COc1ccc(C(=O)c2no[n+]([O-])c2C(=O)c2ccc(OC)cc2)cc1 is lower in z-score: -0.0211 for the first, -0.148 for the second.

First: Nc1nc2ccccc2n1C(=O)CCc1ccccc1
Second: O=C1CN(c2nc3ccccc3n3cnnc23)CC(=O)N1CCc1ccccc1
The z-score of the first is higher: 0.801 for the first, 0.0771 for the second.

Going from COc1cc(/C=C(\C#N)C(=O)NCC2CCCO2)c([N+](=O)[O-])cc1OC (centres undefined) to COc1ccc(C2(CNC(=O)c3ccc(OC)c([N+](=O)[O-])c3)CCOCC2)cc1OC, the z-score rises from -0.142 to -0.13.

Going from Cc1cc2oc3c(c(=O)c2cc1C)C(c1cccc(Br)c1)N(Cc1ccco1)C3=O (centres undefined) to COc1ccc(C(=O)N=c2c(C#N)cc3c(=O)n4cccc(C)c4nc3n2Cc2ccco2)cc1, the z-score rises from -1.41 to -0.152.

Going from Cc1ccc(P(=O)(OCCN2CCOCC2)C(C)(C)C)o1 (centres undefined) to c1ccn(-c2ccc(N3CCOCC3)cc2)c1, the z-score falls from 0.733 to 0.346.

Going from O=C(Cc1ccccc1)NC1c2ccccc2-c2ccccc21 to O=C(CCC(=O)NCCCc1ccccc1)NCCCc1ccccc1, the z-score rises from -0.242 to -0.112.

Compared with COCCOc1cc(NC(=O)c2sccc2Oc2ccc([N+](=O)[O-])cc2F)c(Cl)cc1Cl, COC(=O)COc1ccc(S(=O)(=O)Nc2ccc3c(c2)OCO3)cc1Cl is higher in z-score: -0.513 for the first, -0.362 for the second.

Going from O=C(/C=C/c1cccc([N+](=O)[O-])c1)NCCSc1ccccc1 to COc1c(OC(C)=O)ccc(/C=C/c2ccc3cccc(OCc4ccccc4)c3n2)c1[N+](=O)[O-], the z-score falls from -0.3 to -0.408.

First: CCN1C(=O)/C(=C2/C=Cc3ccccc3N2C)OC1=S
Second: CCOC(=O)c1c(C)c(C#N)c2c3ccccc3ccn12
The z-score of the first is higher: 1.63 for the first, -0.298 for the second.

Compared with O=C(CSc1nnnn1-c1ccc(O)cc1)Nc1ccc(N2CCOCC2)c(Cl)c1, COc1ccc(N2CCN(c3nc(NCCO)nc(N4CCOCC4)n3)CC2)cc1 is higher in z-score: -0.381 for the first, 0.894 for the second.

Going from COc1nc(-c2ccccc2Cl)ccc1C#N to CC(NC(=O)CSc1nc2c(cc1C#N)CN(C)CC2)c1ccccc1 (centres undefined), the z-score rises from -0.243 to 0.37.

Compared with COc1ccccc1-n1c(CNc2ccc(F)cc2)nnc1SCC(=O)Nc1cc(C)on1, COc1cc(NS(=O)(=O)c2ccc(Nc3nc(-c4ccccc4)cs3)cc2)nc(OC)n1 is higher in z-score: -0.964 for the first, -0.636 for the second.

Compared with CCCCCCCCCCNC(=O)C(=O)Nc1ccccn1, CCN(CC)CCNC(=O)C(C)c1nn(C)c(=O)c2ccccc12 (centres undefined) is lower in z-score: 0.816 for the first, -0.107 for the second.

Compared with O=C(NC1CCCCCCC1)c1ccc(S(=O)(=O)N2CCCC2)cc1, O=C(O)C1CCC(=O)N(C2CCCCC2)C1c1ccccc1 (centres undefined) is higher in z-score: -0.277 for the first, 0.373 for the second.

First: Cc1[nH]nc2c1C(c1cccnc1)N(c1ccc(Br)cc1)C2=O (centres undefined)
Second: O=c1[nH]c2cnccc2n1-c1ccccc1
The z-score of the first is lower: -0.132 for the first, 0.17 for the second.

Compared with CCC(C)NS(=O)(=O)c1ccc(S(=O)(=O)N(CC(=O)Nc2ccccc2)Cc2ccco2)cc1 (centres undefined), Cc1ccc(N(CC(=O)Nc2ccccc2C(=O)NCc2ccco2)S(=O)(=O)c2ccccc2)cc1C is higher in z-score: -0.166 for the first, -0.0946 for the second.

First: Cc1cc(C(=O)CN2C(=O)NC(Cc3c[nH]c4ccccc34)C2=O)c(C)n1C (centres undefined)
Second: COc1cccc(-n2nc3c(=O)n(Cc4ccccc4Cl)nc(C)c3c2C)c1
The z-score of the first is higher: 0.108 for the first, -0.182 for the second.

First: O=C(CCNc1cc(Cl)cc(Cl)c1)c1ccco1
Second: Clc1ccc(CNCc2cccs2)c(Cl)c1
The z-score of the first is higher: 0.00404 for the first, -0.654 for the second.

Going from CCOC(=O)C1=C(O)/C(=C\c2ccc(CNS(=O)(=O)c3ccc(Br)cc3)o2)N=C1C to CCOC(=O)C1CN(S(=O)(=O)c2ccc(OC)cc2)c2cc(S(=O)(=O)CC)ccc2O1 (centres undefined), the z-score falls from -0.842 to -1.32.

Compared with CCC(=O)NC(NC(=S)Nc1ccc(S(N)(=O)=O)cc1)C(Cl)(Cl)Cl (centres undefined), CNC(=O)NC(=O)CSc1ccc(NC(C)=O)cc1 is lower in z-score: -0.242 for the first, -1.2 for the second.

Going from CCOC(=O)c1c(C)[nH]c(C(=O)OCC(=O)NC(C)C)c1C to CCOC(=O)c1c(C)[nH]c(C(=O)OCc2c(C)noc2C)c1C, the z-score falls from 0.214 to -0.251.

Going from CSc1nc(NCc2ccco2)c2ccccc2n1 to COc1cccc(C(C(=O)NCc2ccco2)N(Cc2ccco2)C(=O)Cn2nnc3ccccc32)c1 (centres undefined), the z-score rises from -0.745 to -0.372.

Compared with CCCCC(=O)Nc1ccc2c(c1)nc1n2CCOC1, CCCCC(=O)Nc1nnc(-c2ccc(OC)cc2)s1 is lower in z-score: 0.395 for the first, 0.207 for the second.

Compared with Cc1ccc2cc(C#N)c(SCC(=O)NNC(=O)Cc3ccccc3)nc2c1, COC(=O)CSc1nc2cc(C)cc(C)c2cc1C#N is lower in z-score: 0.29 for the first, -0.146 for the second.

First: COc1ccccc1C/C(N)=N/OC(=O)c1ccc(C)c([N+](=O)[O-])c1
Second: COc1ccc(C(C)=O)c(OC(=O)c2ccc(OC)c(OC)c2)c1
The z-score of the first is lower: -0.108 for the first, 0.166 for the second.

Going from Cc1ccc(C(=O)CSc2nnc(-c3ccco3)n2CC2CCCO2)cc1 (centres undefined) to COc1ccc(N(C(=O)c2ccco2)C(C(=O)NC2CCCCC2)c2ccccc2)cc1 (centres undefined), the z-score falls from 0.021 to -0.263.

Compared with C=CCn1c(N)cc(=O)nc1SC(C)C(=O)Nc1cccc2ccccc12 (centres undefined), Cc1noc(C)c1C(c1ccccc1)S(=O)(=O)c1ccccc1 (centres undefined) is lower in z-score: 0.871 for the first, 0.53 for the second.

First: COc1ccc(C2CC(=O)C=C(NCCC(C)C)C2)cc1 (centres undefined)
Second: Cc1scc(C(=O)N/N=C/c2ccc(OC(C)C)cc2)c1C
The z-score of the first is higher: 0.226 for the first, 0.164 for the second.

Going from O=C(c1ccc(Br)s1)N1CCN(Cc2ccc3c(c2)OCO3)CC1 to O=C(Nc1ccc2c(c1)OCO2)C1CCN(S(=O)(=O)Cc2ccccc2)CC1, the z-score falls from 0.000905 to -0.672.

Compared with Cc1ccc(S(=O)(=O)N(C)c2ccccc2)cc1, O=C(COc1ccc(/C=N/NS(=O)(=O)c2ccccc2)cc1)Nc1cccc(Cl)c1 is higher in z-score: -0.466 for the first, -0.227 for the second.

Compared with CCCOc1ccc(Cn2ccnc2)cc1[N+](=O)[O-], COc1cc(/C=N/NC(=O)C(=O)NCc2ccco2)ccc1O is lower in z-score: -0.086 for the first, -0.547 for the second.

First: OCC1(c2cc(C(F)(F)F)n[nH]2)CCCCC1
Second: CC1CC(=O)c2cnc(Nc3cccc(C(F)(F)F)c3)nc2C1 (centres undefined)
The z-score of the first is lower: -0.213 for the first, -0.109 for the second.

First: CN(C)/C=N/C(=S)Nc1ccc(F)cc1
Second: O=C(c1cc(N2C(=O)C3C4CCC(C4)C3C2=O)ccc1Cl)N1CCN(c2ccc(F)cc2)CC1 (centres undefined)
The z-score of the first is higher: -0.239 for the first, -0.422 for the second.

O=S1(=O)CCN(Cc2ccc(Cl)cc2)CC1 was tested, and the z-score was 0.976.

CCOC(=O)C1CCN(C(=O)NC23CC4CC(CC(C4)C2)C3)CC1 was tested, and the z-score was active: 3.31.
In the case of O=C(CCc1nc(-c2ccccc2F)no1)NCCN1CCN(Cc2ccccc2)CC1, the z-score is reported as active: -3.33.
For CCCn1nnnc1NC(=O)c1ccc2ccccc2c1, the z-score was active: 8.08.
In the case of S=C(Nc1ccccc1Cl)Nc1ccc(Cl)cc1Cl, the z-score is reported as active: 5.05.
